Results on 86 sequences are retold here after the supplement of paper PMC3334620.

In all, about 33,000 sequences were measured (“E-score (-0.5 to 0.5)”: median about -0.012, highest 2% from about 0.29 on). This is one part of the list.

The target of the assay is T1, Ybr033w (UniProt P38073).
T1 sequence: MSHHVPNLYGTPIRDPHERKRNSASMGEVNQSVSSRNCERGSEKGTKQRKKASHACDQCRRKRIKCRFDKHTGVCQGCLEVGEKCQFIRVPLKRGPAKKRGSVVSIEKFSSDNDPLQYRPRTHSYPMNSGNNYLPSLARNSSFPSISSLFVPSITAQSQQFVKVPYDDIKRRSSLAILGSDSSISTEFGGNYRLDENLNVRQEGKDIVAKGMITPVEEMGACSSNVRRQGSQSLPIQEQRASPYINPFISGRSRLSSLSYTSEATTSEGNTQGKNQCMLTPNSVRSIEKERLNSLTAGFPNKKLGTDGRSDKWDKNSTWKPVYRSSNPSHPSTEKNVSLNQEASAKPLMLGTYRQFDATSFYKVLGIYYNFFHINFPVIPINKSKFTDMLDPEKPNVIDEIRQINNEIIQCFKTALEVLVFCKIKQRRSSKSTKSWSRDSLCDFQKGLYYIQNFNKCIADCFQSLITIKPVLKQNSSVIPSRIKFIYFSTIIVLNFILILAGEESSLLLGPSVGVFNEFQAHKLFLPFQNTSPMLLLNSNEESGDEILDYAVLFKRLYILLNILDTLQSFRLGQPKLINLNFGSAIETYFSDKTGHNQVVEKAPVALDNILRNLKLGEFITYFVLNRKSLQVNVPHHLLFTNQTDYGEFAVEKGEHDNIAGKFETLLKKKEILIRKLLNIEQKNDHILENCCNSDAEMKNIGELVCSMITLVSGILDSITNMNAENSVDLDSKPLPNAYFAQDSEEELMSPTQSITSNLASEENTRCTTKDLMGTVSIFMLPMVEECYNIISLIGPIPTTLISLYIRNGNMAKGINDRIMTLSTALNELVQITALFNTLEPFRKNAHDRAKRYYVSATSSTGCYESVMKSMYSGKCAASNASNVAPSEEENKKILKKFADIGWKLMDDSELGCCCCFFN
Put plainly: PBM E-score (8-mer binding enrichment) (E-score (-0.5 to 0.5)); higher = stronger / more preferred TF binding; most listed sequences are background and not binding sites. Particulars: protein concentration: 200 nM; construct: GST-full length. In a few lines: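 The E-score, a modified Wilcoxon-Mann-Whitney statistic, was computed by the Universal PBM Analysis Suite for every ungapped eight-base word pooled with its reverse complement. Scans behind it were normalised with masliner after bound GST-tagged yeast transcription factors were detected with fluorescent anti-GST. The proteins, at about 100-200 nM, had been applied to universal all-10-mer Agilent arrays made double-stranded by primer extension.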
CAGTCACG: the “PBM E-score” value was -0.248.
Turning to CCTTATAC, the “PBM E-score” value was -0.034.
With CCTGGTAG, the “PBM E-score” value was -0.161.
For CACACGCA, the “PBM E-score” value was -0.0569.
On to CACACCGG, for which the “PBM E-score” value was -0.178.
Regarding CCTAAGCC, the “PBM E-score” value was -0.229.
On to CAAACCAG, for which the “PBM E-score” value was -0.131.
The value for CCCGAACC was -0.157.
For the sequence GGACTACC, the “PBM E-score” value was -0.133.
Take ACGCCCAC: the “PBM E-score” value is -0.0937.
For the sequence AAGATGTG, the “PBM E-score” value amounted to 0.154.
With GGCGTCTA, the “PBM E-score” value is -0.138.
On to TTAGACAA, for which the “PBM E-score” value amounted to 0.134.
As for GGTTGTGA, the “PBM E-score” value stood at 0.00063.
The value for AAGAAAAA was 0.258.
For ATGACCTG, the “PBM E-score” value was -0.0873.
In the case of GCGCTGAA, the “PBM E-score” value was -0.0684.
For the sequence ATTACTGA, the “PBM E-score” value was found to be 0.169.
CCTCAATA: the “PBM E-score” value was found to be 0.0633.
The value for CTACTGAG was -0.0006.
For TCCAAAGA, the “PBM E-score” value is 0.0237.
Consider CGTTGCGA, for which the “PBM E-score” value was -0.155.
The value for ACGCACCG was -0.179; that for GAGTACCA was 0.122.
Consider TATCGTGA, for which the “PBM E-score” value was -0.0184.
Take AAACACCT: the “PBM E-score” value came out at 0.109.
Regarding AGTTCCAT, the “PBM E-score” value was found to be 0.226.
The value for AGGTGTAC was 0.0056.
In the case of ATGCGGTC, the “PBM E-score” value was 0.0769.
Regarding AATGAGTG, the “PBM E-score” value was 0.174.
Turning to CTGATCGC, the “PBM E-score” value is 0.00198.
For CCATGCGA, the “PBM E-score” value stood at 0.0197.
ATCACTAA: the “PBM E-score” value is 0.157.
As to CCCGCCCC, the “PBM E-score” value was -0.0411.
Consider AAGAATCC, for which the “PBM E-score” value was determined as 0.00137.
CCTGCTAG: the “PBM E-score” value was -0.203.
For the sequence AAGGATGC, the “PBM E-score” value was -0.0451.
The value for AGGCATTC was -0.0335.
With ACATCTCG, the “PBM E-score” value was 0.098.
Regarding GACGCAAA, the “PBM E-score” value is -0.111.
With GCTGACTA, the “PBM E-score” value is -0.221.
Take ACTATGCA: the “PBM E-score” value is -0.00525.
On to TAGCTTAA, for which the “PBM E-score” value worked out at 0.0971.
Take GAAGCGCC: the “PBM E-score” value was -0.0866.
The value for TAATATAA was 0.379; that for AATCCCTC was 0.0521.
For the sequence AGCGCGCA, the “PBM E-score” value stood at 0.174.
For CGAGCTTC, the “PBM E-score” value is 0.0666.
The value for ATGTCTCG was -0.0693; that for AGAACCTA was 0.123.
Turning to CCATACTC, the “PBM E-score” value is -0.104.
AAGTTGAA: the “PBM E-score” value amounted to 0.0758.
For CATTTGCA, the “PBM E-score” value amounted to 0.135.
As to ACCATCTA, the “PBM E-score” value is 0.0217.
For GCCTATGA, the “PBM E-score” value is -0.202.
For AGTTCAAG, the “PBM E-score” value was 0.142.
GTCACGCA: the “PBM E-score” value was determined as 0.0466.
On to CACCACTC, for which the “PBM E-score” value was determined as 0.155.
Regarding ACTCACTC, the “PBM E-score” value is -0.1.
Turning to CAGCAAGC, the “PBM E-score” value was -0.17.
Turning to ACCACCGG, the “PBM E-score” value is -0.0262.
AATTGAAC: the “PBM E-score” value came to 0.0553.
In the case of GAGCCCCA, the “PBM E-score” value was -0.245.
The value for AGCGGCAA was -0.143.
For the sequence ACTATAGA, the “PBM E-score” value is 0.153.
Consider ACCCCTGG, for which the “PBM E-score” value is -0.304.
As to CCATACAG, the “PBM E-score” value is -0.108.
Turning to AATCCAAT, the “PBM E-score” value is 0.0841.
As to GCCATAAA, the “PBM E-score” value was -0.0384.
GGTAAACC: the “PBM E-score” value is -0.0889.
Consider GATGGATA, for which the “PBM E-score” value was 0.0529.
The value for ACCTTACT was 0.149.
As to TAAGGCGA, the “PBM E-score” value is 0.0361.
For the sequence AACAGAGT, the “PBM E-score” value is 0.141.
For GTACGTAA, the “PBM E-score” value was 0.0793.
Turning to AATGCGAA, the “PBM E-score” value was 0.0782.
With GTTATAAC, the “PBM E-score” value was -0.0791.
Take ATAACTCG: the “PBM E-score” value amounted to 0.077.
For CCCAAGAA, the “PBM E-score” value is -0.0558.
On to AAGCTGTG, for which the “PBM E-score” value amounted to 0.061.
As to ATGAGCTA, the “PBM E-score” value was found to be 0.0508.
The value for GGGATTTA was 0.0689; that for GTTAAATA was 0.278; that for ACCATCAT was 0.0599.
Regarding GAACGGCA, the “PBM E-score” value was found to be 0.0282.
In the case of CAGCACGA, the “PBM E-score” value was -0.0474.
